From PubChem BioAssay AID686979 (National Center for Advancing Translational Sciences (NCATS), 2013)
Where “and” joins values, the source holds several entries; their conditions need not be identical. Identical values can stand only once. The whole screen tested about 420,000 compounds, of which about 50,000 (12%) were called active. This list was built around the results that the source calls inconclusive (neither active nor inactive); the mix of calls is not that of the screen. Calls follow the shape of the dose curve; as a rule, active = well fitted inhibition curve with a large enough effect; inconclusive = small, poorly fitted or top-dose-only effect; inactive = flat fitted curve, though single readings scatter. Where the call is inconclusive, the potency comes from a doubtful curve fit.

Experiment: qHTS for Inhibitors of human tyrosyl-DNA phosphodiesterase 1 (TDP1): qHTS in cells in presence of CPT; also: nearly all actives have a fitted effect of over 55% in size
Settings: chicken DT40 Tdp1-/-;hTDP1 cells + 20 nM CPT, ATP luminescence, 48 h; activity change, negative = growth inhibition: at 46.2 µM (top of the series)
Outline: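 Cell growth measured by CellTiter-Glo luminescence after a minimum 48 h, 37 C compound exposure with 20 nM CPT in Tdp1-knockout DT40 cells stably expressing hTDP1, seeded 400/well; qHTS titration format.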
% is scaled to controls: 0 for no effect and ±100 for the full control effect; potency is read from the fitted curve at half-maximal effect; tags tell the direction and shape of the fitted curve.

| SMILES | Potency | activity change, negative = growth inhibition |
| --- | --- | --- |
| COc1ccc(N2CCN(C(=O)CSc3nc4cc(OC)c(OC)cc4cc3C#N)CC2)cc1 | inconclusive: 20.6 µM [inhibitor, single point] | – |
| O=C(NCCN1CCN(c2ccccc2)CC1)C1CCN(S(=O)(=O)c2cccs2)CC1 | inconclusive: 18.4 µM [inhibitor, single point] | – |
| CCOC(=O)C(NC(=O)NCc1cccc(C(F)(F)F)c1)(OCC)C(F)(F)F (stereo not given) | – | inactive: -0.104% |
| COc1ccc(-c2ccc(CN3C(C)C(=O)N(Cc4cn(CCC5OCCO5)nn4)CCS3(=O)=O)cc2)cc1OC (stereo not given) | active: 18.4 µM | – |
| Cc1nn(Cc2ccc([N+](=O)[O-])cc2)c(=O)n1N(C)c1ncc(C(F)(F)F)cc1Cl | inconclusive: 22.4 µM [inhibitor, partial curve] | – |
| Cc1ccc(-c2c(C#N)c(N)nc3c2CCCCC3)o1 | inconclusive: 35.5 µM [inhibitor, single point] | – |
| Cc1ccc(NS(=O)(=O)N(C)C)cc1 | – | inactive: 4.99% |
| COc1cccc(-c2ccc(NC(=O)C3CCCN(Cc4cnn(C)c4C)C3)cc2)c1 (stereo not given) | inconclusive: 23.1 µM [inhibitor, single point] | – |
| Cc1cccc(Cn2c(=O)c3c(nc4n3CCN4Cc3ccco3)n(C)c2=O)c1 | active: 20.6 µM | – |
| O=C(COc1ccc(Cl)cc1)N1CCN(S(=O)(=O)c2ccc(Cl)cc2)CC1 | inconclusive: 16.4 µM [inhibitor, single point] | – |
| Cc1ccc(C(=O)N2CCN(Cc3ccc4c(c3)OCO4)CC2)o1 | – | inactive: -5.45% |
| CCn1cc(C(=O)NCCc2ccc(Cl)cc2)c(=O)c2cc(S(=O)(=O)N3CCC(C)CC3)ccc21 | inconclusive: 29.1 µM [inhibitor, single point] | – |
| COc1ccccc1CCC(=O)NNC(=O)c1ccncc1 | – | inactive: 15.3% |
| CC(C)(C)C(=O)/C=C1\NC(=O)CS1 | – | inactive: 18.8% |
| Cc1ccc(C)c(Cn2c(=O)cc(C)c3c(C)nn(C)c32)c1 | inconclusive: 16.4 µM [inhibitor, single point] | – |
| COCCCNC(=O)/C=C1\Sc2ccccc2N(Cc2ccccc2F)C1=O | inconclusive: 11.6 µM [inhibitor, partial curve] | – |
| COc1ccccc1C(=O)Nc1ccnn1C1CCN(Cc2cc(C)c(C)cc2C)CC1 | inconclusive: 29.1 µM [inhibitor, single point] | – |
| COC(=O)c1c(NC(=O)CSc2nnnn2-c2ccc3c(c2)OCO3)sc(C)c1C | – | inconclusive: -35% [inhibitor] |
| CCOC(=O)c1c(NC(=O)CSc2nnc(C)s2)sc2c1CCN(C)C2 | inconclusive: 29.1 µM [inhibitor, single point] | – |
| Cc1cccc(C(=O)Nc2ccc(C(=O)OCc3cc(=O)n4nc(CC(C)C)sc4n3)cc2)c1 | – | inactive: -7.85% |
| COc1cnc(N(C)C)nc1Sc1cccc(Cl)c1 | inconclusive: 8.2 µM [inhibitor, partial curve] | – |
| CC[n+]1c(/C=C/Nc2ccccc2)sc2ccccc21 | active: 5.8 µM | – |
| Nc1nc2c(nc(Br)n2C2CC(O)C(CO)O2)c(=O)[nH]1 (stereo not given) | – | inactive: -1.45% |
| O=C(c1ccccc1)N(Cc1ccco1)Cc1cccs1 | inconclusive: 29.1 µM [inhibitor, single point] | – |

| SMILES | Potency | activity change, negative = growth inhibition |
| --- | --- | --- |
| CCn1c(C)c(C)c2cc(C(=O)NCc3cccc(C)c3)ccc21 | active: 23.1 µM | – |
| Cc1cc(N2CCN(C)CC2)nc2ccc(NC(=O)c3ccc(Br)o3)cc12 | inconclusive: 29.1 µM [inhibitor, single point] | – |
| COc1ccc(CC(=O)Nc2ccccc2C(C)=O)cc1S(=O)(=O)N1CCOCC1 | – | inactive: -1.56% |
| O=C(Nc1ccc(F)c(F)c1)c1ccccc1-c1ccccc1 | – | inactive: -3.92% |
| Cn1nnc(NC(=S)NC(=O)c2ccc(-c3ccc(Br)cc3)o2)n1 | – | inactive: 11.8% |
| CN(C)c1nc(/C=C(\C#N)C(N)=O)c(Cl)n1-c1ccc(F)cc1 | active: 16.4 µM | – |
| COc1ccc(C2=Nn3c(nnc3-c3ccccc3)SC2)cc1OC | – | inactive: -25.6% |
| O=C(CN(Cc1ccco1)Cc1ccco1)Nc1cc(S(=O)(=O)N2CCCCC2)ccc1Cl | active: 13 µM | – |
| O=C(Nc1ccc2nc(-c3cccnc3)[nH]c2c1)c1ccccc1F | inconclusive: 20.6 µM [inhibitor, single point] | – |
| CC(C)NC(=O)C1(C)CCN1C/C=C/c1ccccc1 (stereo not given) | inconclusive: 25.9 µM [inhibitor, single point] | – |
| COC(=O)[C@]1(Cc2ccccc2)N[C@H](CN(C)S(=O)(=O)c2ccc(OC)cc2)[C@@H]2C(=O)N(C)C(=O)[C@@H]21 | inconclusive: 23.1 µM [inhibitor, partial curve, poor fit] | – |
| COc1cccc(CNC(=O)CCc2c(C)c3cc4c(C)coc4c(C)c3oc2=O)c1 | inconclusive: 18.4 µM [inhibitor, single point] | – |
| O=C1c2ccccc2C(=O)c2c1oc(C(F)(F)F)c2C(=O)c1ccccc1 | active: 11.6 µM | – |
| OC12CC3C[C@H](C1)C(N1CCOCC1)[C@@H](C3)C2 (stereo not given in full) | – | inactive: -7.1% |
| CCOC(=O)c1nn(-c2ccccc2)c(=O)c2c(N)scc12 | active: 8.2 µM | – |
| CCOC(=O)C1=C(COC(=O)CCS(=O)(=O)c2ccc(C)cc2)NC(=O)NC1C (stereo not given) | inconclusive: 2.31 µM [inhibitor, partial curve, poor fit] | – |
| CCc1cccc(C)c1NC(=S)NCc1ccc2[nH]c(C)cc2c1 | active: 23.1 µM | – |
| O=C(NCCN1CCN(C(=O)c2cccc(Br)c2)CC1)C(=O)NCc1ccccc1 | inconclusive: 29.1 µM [inhibitor, single point] | – |
| COc1ccccc1NC(=O)c1sc2nc(C)c(C(=O)Nc3ccc(C)cc3C)c(-c3ccc(C)o3)c2c1N | inconclusive: 18.4 µM [inhibitor, single point] | – |
| O=C(NC1CC1)C1CCN(S(=O)(=O)c2cc([N+](=O)[O-])ccc2Cl)CC1 | – | inactive: -27% |
| Cc1ccc(-n2ncc3c(N4CCN(C)CC4)ncnc32)cc1C | inconclusive: 18.4 µM [inhibitor, single point] | – |
| COc1ccccc1NC(=O)C1=C(C)NC(=O)NC1c1ccccc1[N+](=O)[O-] (stereo not given) | – | inactive: 1.48% |
| CCCCCCCCCNC(=O)[C@H](NC(=O)COc1ccccc1)[C@@H]1NC(C(=O)OC)C(C)(C)S1 (stereo not given in full) | inconclusive: 35.5 µM [inhibitor, single point] and inconclusive: 20.6 µM [inhibitor, single point] | – |
| CCOC(=O)c1sc(NC(=S)NC(=O)c2ccccc2)c(C(=O)OCC)c1C | inconclusive: 18.4 µM [inhibitor, single point] | – |

| SMILES | Potency | activity change, negative = growth inhibition |
| --- | --- | --- |
| O=C(c1ccccc1)N1N=C(c2ccccc2)CC1c1ccccc1[N+](=O)[O-] (stereo not given) | – | inactive: -10.3% |
| O=C1CCC(CCC(=O)N2CCCC(C(=O)c3ccc4c5c(cccc35)CC4)C2)=NN1 (stereo not given) | inconclusive: 14.6 µM [inhibitor, partial curve, poor fit] | – |
| O=C(CN1N=C(c2ccc(Cl)cc2)CCC1=O)NCCN1CCc2ccccc2C1 | inconclusive: 23.1 µM [inhibitor, single point] | – |
| Cc1ccc(CNc2ncnc3[nH]ncc23)cc1 | inconclusive: 23.1 µM [inhibitor, single point] | – |
| COCCn1c(SCC(=O)c2cc(C)n(C)c2C)nc2ccccc2c1=O | inconclusive: 16.4 µM [inhibitor, single point] | – |
| Cc1sc2nc(CSc3ccccc3)nc(N3CCOCC3)c2c1C | inconclusive: 20.6 µM [inhibitor, single point] | – |
| COc1ccc2nc(N3C(=O)C(O)=C(C(=O)c4ccco4)C3c3ccc(OC)c(OC)c3)sc2c1 (stereo not given) | inconclusive: 29.1 µM [inhibitor, single point] | – |
| CCCN1CCN(C(c2cc3cc4c(cc3[nH]c2=O)OCO4)c2nnnn2C(C)(C)C)CC1 (stereo not given) | inconclusive: 23.1 µM [inhibitor, single point] | – |
| Cc1c(C(=O)NCc2ccccc2C(F)(F)F)sc(=O)n1Cc1ccc(S(=O)(=O)N(C)C)cc1 | inconclusive: 18.4 µM [inhibitor, single point] | – |
| O=c1c2ccccc2nc(SCc2ccc(F)cc2Cl)n1CCCN1CCOCC1 | inconclusive: 23.1 µM [inhibitor, single point] | – |
| CCOC(=O)CN1C2=NCCCN2c2ccccc21 | – | inactive: 4.31% |
| CCOc1ccc(NC(=O)c2ccccc2NS(C)(=O)=O)cc1 | inconclusive: 18.4 µM [inhibitor, single point] | – |
| COc1ccc(/C=C2/SC(=S)N(CC(=O)O)C2=O)cc1OCc1ccc(Cl)cc1 | – | inactive: -3.39% |
| Cc1c2cnn(-c3ccccc3)c(=O)c2c(C)n1CC(=O)NCc1ccccc1 | inconclusive: 23.1 µM [inhibitor, single point] | – |
| CN(O)/C=c1/ccc2c(n1)C(=O)C=CC=2 | active: 4.61 µM | – |
| Cc1ccc(Cl)cc1NS(=O)(=O)c1cc2c3c(c1)CC(=O)N3CCC2 | inconclusive: 16.4 µM [inhibitor, single point] | – |
| Cc1cccc(-n2c(SCC(=O)c3ccccc3)nnc2-c2ccc(Br)cc2)c1 | active: 16.4 µM | – |
| CN(CC(=O)Nc1ccc(Cl)cc1)CC(=O)Nc1cc(Cl)ccc1C#N | inconclusive: 29.1 µM [inhibitor, single point] | – |
| CC1(C)CC2CC(C)(CN2C(=O)c2cccs2)C1 (stereo not given) | inconclusive: 14.6 µM [inhibitor, partial curve, poor fit] | – |
| Cc1ccc(C)c(Cn2cnc3c(oc4ccccc43)c2=O)c1 | – | inconclusive: -32.9% [inhibitor] |
| CC(=O)NS(=O)(=O)c1ccc(NC(=O)c2ccc(Br)o2)cc1 | – | inactive: 4.89% |
| CCOc1ccc(S(=O)(=O)Nc2ccc(-c3ccc(OC)nn3)cc2)cc1 | inconclusive: 20.6 µM [inhibitor, partial curve] | – |
